According to PubChem BioAssay AID504339 (National Center for Advancing Translational Sciences (NCATS), 2011):
About 17,000 (4.4%) of roughly 390,000 compounds were called active. The shares of active, inactive and inconclusive entries below differ from those in the screen. Calls follow the shape of the dose curve; as a rule, active = well fitted inhibition curve with a large enough effect; inconclusive = small, poorly fitted or top-dose-only effect; inactive = no such curve, though single readings can be large or run the other way. Where the call is inconclusive, the potency comes from a doubtful curve fit.
Also: nearly all actives have a fitted effect of over 50% in size.
Potency is read from the fitted curve at half-maximal effect; tags tell the direction and shape of the fitted curve.

Each molecule was assayed against Lysine-specific demethylase 4A (Homo sapiens) (UniProt O75164) (assay: qHTS Assay for Inhibitors of JMJD2A-Tudor Domain). Settings: AlphaScreen JMJD2A-Tudor / H3K4me3 peptide binding; series mostly up to 114 µM.
Sequence of UniProt O75164 (O75164 whole entry, looked up, the tested form may be a part): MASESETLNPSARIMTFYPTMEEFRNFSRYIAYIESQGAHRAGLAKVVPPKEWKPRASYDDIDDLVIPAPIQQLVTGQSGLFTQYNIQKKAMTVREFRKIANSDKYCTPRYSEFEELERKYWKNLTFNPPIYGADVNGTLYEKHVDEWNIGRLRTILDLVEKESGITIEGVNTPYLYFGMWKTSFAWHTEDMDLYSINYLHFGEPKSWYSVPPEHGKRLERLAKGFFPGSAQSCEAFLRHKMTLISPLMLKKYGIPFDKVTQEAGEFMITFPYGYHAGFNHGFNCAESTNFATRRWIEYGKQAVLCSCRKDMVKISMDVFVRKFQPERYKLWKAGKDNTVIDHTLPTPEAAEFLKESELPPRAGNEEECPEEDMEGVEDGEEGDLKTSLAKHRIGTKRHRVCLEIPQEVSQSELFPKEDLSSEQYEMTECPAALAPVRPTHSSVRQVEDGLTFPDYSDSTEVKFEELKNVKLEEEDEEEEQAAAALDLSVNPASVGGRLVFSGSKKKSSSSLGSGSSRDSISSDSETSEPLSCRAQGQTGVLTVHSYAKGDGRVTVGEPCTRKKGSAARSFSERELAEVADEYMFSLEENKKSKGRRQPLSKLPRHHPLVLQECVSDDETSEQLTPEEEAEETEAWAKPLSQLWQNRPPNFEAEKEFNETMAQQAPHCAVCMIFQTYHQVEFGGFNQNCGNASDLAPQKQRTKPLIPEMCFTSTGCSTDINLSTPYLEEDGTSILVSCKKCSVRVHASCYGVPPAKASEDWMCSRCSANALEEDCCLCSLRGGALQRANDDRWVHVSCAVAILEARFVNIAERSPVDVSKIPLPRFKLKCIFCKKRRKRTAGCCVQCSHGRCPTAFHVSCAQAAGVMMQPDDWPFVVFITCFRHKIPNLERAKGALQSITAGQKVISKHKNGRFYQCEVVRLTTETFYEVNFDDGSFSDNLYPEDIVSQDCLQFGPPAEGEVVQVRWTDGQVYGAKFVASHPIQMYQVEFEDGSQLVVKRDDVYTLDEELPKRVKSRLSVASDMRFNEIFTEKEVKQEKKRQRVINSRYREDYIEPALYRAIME
With `C=CCc1cccc(/C=N/NC(=O)C[n+]2ccccc2)c1O` the Potency was inconclusive: 79.4 µM [inhibitor, partial curve]. `Cc1nc(C)c(C(=O)N(c2ccc(F)cc2)C(C(=O)NCC2CCCO2)c2ccccc2)s1` (configuration not stated) was tested, and the Potency was “inactive”. For `COc1cc(-c2cc(OC)c3c(C)oc(C)c3c(=O)c2)ccc1OC(=O)c1ccccc1Cl`, the Potency was inconclusive: 63.1 µM [inhibitor, single point]. For `COc1ccc(C(=O)CSc2nnc(CC(=O)Nc3ccccc3OC)n2C)cc1`, the Potency was “inactive”. For `CCCC(=O)C1C(=O)CC(CC(C)SCC)CC1=O` (configuration not stated), the Potency was inconclusive: 89.1 µM [inhibitor, single point]. `C=C(C)C(=O)Nc1cccc(C2=NOC3(C2)C[C@@H](C(N)=O)N(C(=O)CCCCC)C3)c1` (some centres not stated) was tested, and the Potency was active: 1.78 µM. For `Cc1cccc(-n2c(-c3ccncc3)n[nH]c2=S)c1`, the Potency was active: 28.2 µM. With `CC1CN(c2nc(N(C)c3ccccc3)nc(N)c2[N+](=O)[O-])CC(C)O1` (configuration not stated) the Potency was inconclusive: 63.1 µM [inhibitor, partial curve, poor fit]. For `Cc1ccc2nc(N3CCN(c4cccc(Cl)c4)CC3)c(-n3nc(C)cc3C)nc2c1`, the Potency was “inactive”. With `Cc1ccc(-n2c(C)cc3c2CC(C)(C)CC3=O)cc1C` the Potency was active: 56.2 µM. In the case of `Clc1ccc(-c2csc(N/N=C/c3ccco3)n2)cc1`, the Potency is reported as inconclusive: 20 µM [inhibitor, full curve]. `COCCCNCCOc1cc(C(C)C)ccc1C` was tested, and the Potency was active: 3.16 µM. With `CSc1cccc(NC(=S)N2CCC(N(C)C3CCCCC3C)CC2)c1` (configuration not stated) the Potency was “inactive”. For `O=C(NCCc1ccccc1Cl)c1ccc(Cn2c(=O)c3cccn3c3cccnc32)cc1`, the Potency was inconclusive: 56.2 µM [inhibitor, partial curve]. With `COc1ccc(CCn2cc3c(c2-c2ccc(Br)cc2)c(=O)n(C)c(=O)n3C)cc1OC` the Potency was inconclusive: 28.2 µM [inhibitor, full curve, poor fit]. `O=S(=O)(c1ccc(NC(=S)NCc2ccncc2)cc1)N1CCCCC1` was tested, and the Potency was “inactive”. For `O=C(O)c1cc(=S)nc[nH]1`, the Potency was inconclusive: 2.24 µM [inhibitor, full curve, poor fit]. `Cc1cccnc1NC(=O)c1ccc(NS(=O)(=O)c2ccc3[nH]c(=O)[nH]c3c2)cc1` was tested, and the Potency was “inactive”. In the case of `CN(C)c1ccc(C(CNS(=O)(=O)c2ccc3ccccc3c2)N2CCOCC2)cc1` (configuration not stated), the Potency is reported as inconclusive: 44.7 µM [inhibitor, partial curve]. `CN(C)/C=C/C(=O)c1ccc(OCCN(C)c2ccccn2)cc1` was tested, and the Potency was inconclusive: 50.1 µM [inhibitor, partial curve]. In the case of `CCOC(=O)C1CCC(CN(Cc2cccc(Br)c2)S(=O)(=O)c2ccc(C)cc2)CC1` (configuration not stated), the Potency is reported as “inactive”. With `O=C1OC(c2ccc(Cl)cc2)/C(=C(/O)c2ccccc2)C1=O` (configuration not stated) the Potency was active: 31.6 µM. With `CCOC(=O)C(Sc1cc(C)nc(N)n1)C(C)=O` (configuration not stated) the Potency was active: 56.2 µM. In the case of `O=[N+]([O-])c1ccc(Sc2ccc(Cl)c(Cl)c2)nc1`, the Potency is reported as inconclusive: 11.2 µM [inhibitor, full curve, poor fit]. In the case of `COc1ccc(NC(=S)NC(=O)c2cc3ccccc3o2)c(OC)c1`, the Potency is reported as “inactive”. In the case of `CCOc1cc(C(=O)Nc2ccc(N3CCOCC3)cc2)cc(Br)c1OC`, the Potency is reported as “inactive”. For `CN(Cc1c(F)cccc1Cl)C(=O)CCc1c[nH]c2ccccc12`, the Potency was inconclusive: 56.2 µM [inhibitor, partial curve]. For `O=C(NCc1ccccc1)c1ccc(NC(=O)c2ccco2)cc1`, the Potency was “inactive”. For `CCOC(=O)C(Sc1nnc(-c2ccncc2)o1)C(C)=O` (configuration not stated), the Potency was inconclusive: 3.98 µM [inhibitor, partial curve, poor fit]. `COc1ccc(NC(=O)Cn2c(SCc3cc(C)ccc3C)nc3ccncc32)c(OC)c1OC` was tested, and the Potency was inconclusive: 56.2 µM [inhibitor, single point]. In the case of `O=S(=O)(Nc1ccccc1)c1ccc(NS(=O)(=O)c2c(F)cccc2F)cc1`, the Potency is reported as “inactive”. With `Cc1c(CCNC(=O)c2ccc(Br)o2)sc2nc(-c3ccc(F)cc3)nn12` the Potency was active: 50.1 µM. `C=CCN(C)CC/C=C1\c2ccccc2CSc2ccccc21` was tested, and the Potency was inconclusive: 79.4 µM [inhibitor, partial curve]. With `CC(C)=C1CCC(C)CC1=NNC(N)=S` (configuration not stated) the Potency was inconclusive: 3.98 µM [inhibitor, full curve, poor fit]. In the case of `COc1cc(NC(=O)CN(c2ccc(C)cc2)S(=O)(=O)c2cccc3nonc23)cc(OC)c1`, the Potency is reported as inconclusive: 3.98 µM [inhibitor, full curve]. With `CCC(CO)Oc1cc(NC(=O)c2ccccc2F)c2ncn(C(C)C)c2c1` (configuration not stated) the Potency was “inactive”. `Cc1ccc(C)c(N2CCN(CCCNC(=O)c3cnn(-c4ccccc4Cl)c3C3CCN(C(=O)OC(C)(C)C)CC3)CC2)c1` was tested, and the Potency was inconclusive: 50.1 µM [inhibitor, partial curve]. With `COc1ccc(C(=O)NCC(=O)N2CCN(c3ccc(Cl)cc3)CC2)cc1` the Potency was “inactive”. In the case of `COc1cccc(-n2c(=O)c3ccccc3n3c(=S)[nH]nc23)c1`, the Potency is reported as active: 11.2 µM. `O=C(O)Cc1ccc(C(=O)c2ccccc2)s1` was tested, and the Potency was “inactive”. `Cc1ccc(OCC(=O)OCc2cc(=O)n3nc(-c4cccs4)sc3n2)cc1C` was tested, and the Potency was “inactive”. In the case of `COc1ccc(C(O)P(=O)(OC(C)C)c2ccc(N(C)C)cc2)c(OC)c1` (configuration not stated), the Potency is reported as active: 22.4 µM. `Cc1ccc(Cl)cc1N1CCN(Cc2nc3c(c(=O)[nH]c(=O)n3C)n2Cc2ccccc2F)CC1` was tested, and the Potency was inconclusive: 89.1 µM [inhibitor, partial curve, poor fit]. In the case of `COc1ccc(C2c3ccc4ccccc4c3Oc3ncn(Cc4ccco4)c(=N)c32)cc1OC` (configuration not stated), the Potency is reported as inconclusive: 39.8 µM [inhibitor, single point]. With `O=C1NC(=Nc2ccc(Cl)cc2)/C(=C/c2ccco2)S1` the Potency was active: 11.2 µM. With `CN(C)S(=O)(=O)c1ccc(C(=O)Nc2nnc(-c3ccc4c(c3)CCCC4)o2)cc1` the Potency was inconclusive: 12.6 µM [inhibitor, full curve, poor fit]. `COc1ccc(NC(=O)c2sccc2C)c([N+](=O)[O-])c1` was tested, and the Potency was inconclusive: 63.1 µM [inhibitor, partial curve].
